# The campaign covered roughly 360,000 compounds. About 7,500 (2.1%) were called active. Inconclusive results, whose numbers are uncertain, are shown with a selection of clear calls. Calls follow the shape of the dose curve; as a rule, active = well fitted cell-killing curve with a large enough effect; inconclusive = small, poorly fitted or top-dose-only effect, or effect the other way, or another doubt; inactive = no such curve, though single readings can be large or run the other way. Potencies of inconclusive entries are left out as doubtful fits.
# Test: qHTS for induction of synthetic lethality in tumor cells producing 2HG: qHTS for the HT-1080-IDH1KD cell line;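 as to activity, negative = toxicity: 0% = DMSO wells and -100% = cell-free medium wells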
# Details: HT-1080 IDH1 knockdown viability, ATP luminescence, 48 h; activity, negative = toxicity: at 46.1 µM (top of the series) unless noted
# Outline: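 CellTiter-Glo luminescence after 48 h compound exposure at 37 degrees C of IDH1-knockdown HT-1080 cells in 5% FBS RPMI. %Activity scaled between DMSO wells and cell-free media wells, with curves fitted and assigned curve classes.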
# Potency is read from the fitted curve at half-maximal effect; tags tell the direction and shape of the fitted curve.
SMILES,Potency,"activity, negative = toxicity"
N=c1c2c(n(Cc3ccc(Cl)cc3)c3c1CCC3)CCC2,active: 7.08 µM,–
CCOc1ccc2nc(NC(=O)CN3CCC(n4nnc5cc(F)ccc54)CC3)sc2c1,"inconclusive [cytotoxic, single point]",–
O=C(CNc1ccc2ccccc2c1)N/N=C/c1ccc(OC(=O)/C=C/c2ccco2)cc1,"inconclusive [cytotoxic, full curve]",–
CCOC(=O)N1CCN(C(=O)c2ccccc2N(Cc2ccccc2)S(=O)(=O)c2ccc(OC)cc2)CC1,active: 3.26 µM,–
O=C(Nc1ccc(S(=O)(=O)Nc2nccs2)cc1)c1cc(-c2ccccc2)nc2ccccc12,"inconclusive [cytotoxic, partial curve]",–
NC(=S)N/N=C/c1ccccc1OCCSc1ccc(Cl)cc1,"inconclusive [cytotoxic, partial curve]",–
CC(=O)c1cccc(NS(=O)(=O)c2ccc(N/C=C/C(=O)c3ccc(F)cc3)cc2)c1,"inconclusive [cytotoxic, partial curve]",–
O=C(Nc1ccccc1C(=O)N/N=C/c1ccncc1)c1ccccc1,active: 9.2 µM,–
CCCCCCC[C@@H](C/C=C/CCC(=O)N(C)C/C(=C/Cl)C/C(=C\C(=O)N1C[C@H](O)CC1=O)OC)OC,"inconclusive [cytotoxic, single point]",–
CC(C)CCn1c(=S)[nH]c2ncccc2c1=O,"inconclusive [rising, partial curve]",–
Cc1ccc(SCC(=O)NCc2ccc(F)cc2)cc1,–,inactive: 15%
Cc1ccc(Nc2c(-c3ccccn3)nc3ccc(C)cn23)cc1,"inconclusive [cytotoxic, partial curve]",–
Cc1ccc(N=Nc2c(N)n(-c3ccccc3)[nH]c2=O)cc1,"inconclusive [cytotoxic, single point]",–
Fc1ccc(C2CCCN2Cc2nc(Cc3ccccc3)no2)cc1 (stereo not given),–,inactive: -5.43%
COc1cc(NC(=S)NCc2cccs2)cc(OC)c1,–,inactive: 11.7%
COc1ccc(C(=O)CSc2nnc(C3CC3)n2N)cc1,"inconclusive [cytotoxic, single point]",–
C=C(CCC(=O)c1ccccc1)C(=O)c1ccccc1,"inconclusive [cytotoxic, single point]",–
COc1ccc(C(=O)NC(=S)NNC(=O)c2c(-c3ccccc3)noc2C)cc1OC,"inconclusive [cytotoxic, single point]",–
COc1ccc(C(=O)CN2C(=O)COc3ccccc32)cc1,–,inconclusive: 33.5%
CCCCCOc1ccc(C(=O)NCC(=O)NCC(=O)OCC)cc1,"inconclusive [cytotoxic, partial curve]",–
O=C(Nc1cc(C(F)(F)F)ccc1F)C1Cc2c(-c3ccccc3Oc3ccccc3)ccnc2O1 (stereo not given),"inconclusive [cytotoxic, single point]",–
COc1ccc(C(=O)c2c(C)oc3ccc(O)c(CN4CCOCC4)c23)cc1,–,inactive: -13.9%
FC(F)(F)c1cccc(-c2cc(C3CCNCC3)[nH]n2)c1,"inconclusive [cytotoxic, single point]",–
O=C(NCC(c1cccs1)N1CCc2ccccc21)c1ccccc1 (stereo not given),"inconclusive [cytotoxic, single point]",–

SMILES,Potency,"activity, negative = toxicity"
CCOC(=O)c1ccc(NC(=O)c2ccc(C)c(S(=O)(=O)N3CCOCC3)c2)cc1,"inconclusive [cytotoxic, single point]",–
CCN1/C(=C/c2ccc3cc(C)ccc3[n+]2CC)Sc2cc(C)ccc21,active: 23.1 µM,–
CC1CCN(C(=O)C2CCN(C(=O)c3cc4sccc4n3Cc3ccc(F)cc3)CC2)CC1,"inconclusive [cytotoxic, single point]",–
CN(C)c1oc(-c2ccccc2[N+](=O)[O-])nc1C#N,–,inactive: -1.26%
C/C=C/c1ccc(OCC(=O)Nc2ccncc2)c(OC)c1,–,inactive: -21.3%
Cc1cc(C)c(C(=O)COc2cccnc2[N+](=O)[O-])cc1C,"inconclusive [cytotoxic, single point]",–
COc1cc(C)c(S(=O)(=O)NCc2cccnc2)cc1C,–,inactive: -1.61%
COC(=O)c1ccc(NC(=O)COC(=O)CSc2nc(C)cc(C)n2)cc1,"inconclusive [cytotoxic, single point]",–
COc1ccc(CN2C[C@H]3CCCN3c3cc(Br)ccc3S2(=O)=O)cc1,active: 2.59 µM,–
Cc1c(C(=O)NCC(c2ccco2)N2CCCC2)sc2ccccc12 (stereo not given),"inconclusive [cytotoxic, single point]",–
CC(C)N(Cc1nc(-c2ccccc2)no1)C(=O)c1ccc(Cl)cc1,–,inactive: -12.9%
CCCN(C)C1CN(Cc2cn(Cc3ccc(OC)cc3)nn2)S(=O)(=O)C1 (stereo not given),–,inactive: 16%
COc1ccc(NC(=O)C(=O)NCCC2CCCCN2S(=O)(=O)c2cccs2)cc1 (stereo not given),active: 5.8 µM,–
O=C1N[C@@H](Cc2ccccc2)COC(=O)[C@@H](Cc2ccc(F)cc2)CC/C=C/C[C@H]1CC(=O)N(CCO)Cc1ccccc1,"inconclusive [cytotoxic, single point]",–
Oc1ccc(N2CCN(c3ncnc4sc(-c5ccccc5)cc34)CC2)cc1,"inconclusive [cytotoxic, single point]",–
O=C1c2ccccc2C(=O)c2c(O)c(O)cc(O)c21,"inconclusive [cytotoxic, partial curve]",–
Cc1ccc(-c2cc(C(F)(F)F)nn2-c2ccc(S(N)(=O)=O)cc2)cc1,"inconclusive [cytotoxic, single point]",–
O=C(N/N=C\c1cc(Br)cs1)C1COc2ccccc2O1 (stereo not given),"inconclusive [cytotoxic, single point]",–
CN(CCCn1ccc(NC(=O)OCc2ccccc2)nc1=O)Cc1ccco1,–,inactive: -6.58%
Cc1cccc2cc(C#N)c(NCCCNS(=O)(=O)c3ccc(Cl)cc3)nc12,"inconclusive [cytotoxic, single point]",–
CCCCCC(=O)N1C[C@@H](O)[C@H](n2cc(COC(=O)c3ccccc3)nn2)C[C@@H]1c1ccccc1,–,inactive: -4.34%
O=C1CCCN1CCCNc1ncnc2c1[nH]c1ccc(Cl)cc12,"inconclusive [cytotoxic, single point]",–
O=C(Nc1ncc(Cc2ccccc2Cl)s1)C1=NCCN1,"inconclusive [cytotoxic, single point]",–
COc1cc(/C=N/NC(=O)c2c(C)nc3ccc(Cl)cn23)cc(OC)c1OC,–,inconclusive: -33.6% [cytotoxic]

SMILES,Potency,"activity, negative = toxicity"
CCN(CC(=O)Nc1c(F)cccc1F)C(=O)CCc1nc2cc(S(=O)(=O)N3CCOCC3)ccc2n1C,–,inactive: -0.295%
COc1ccc(Cl)cc1NC(=O)Cn1c(=O)oc2ccccc21,–,inactive: 9.08%
CCCCN(C)C(=O)c1cc2cc3ccc(OC)cc3nc2s1,"inconclusive [cytotoxic, single point]",–
O=C(NN1CCOCC1)c1cn(-c2ccccc2)nc1-c1cccs1,"inconclusive [rising, single point]",–
Cc1ccccc1Cn1nc(C)c(NC(=O)c2cc(-c3cccs3)on2)c1C,"inconclusive [cytotoxic, single point]",–
CCN1CCN(CCNC(=O)c2ccc(/C=C3/Sc4ccccc4N(Cc4ccccc4C)C3=O)cc2)CC1,active: 20.6 µM,–
COc1cccc(/C=N/NC(=O)c2ccccc2)c1OS(=O)(=O)c1ccccc1,–,inactive: -7.45%
CCCN(CCC)S(=O)(=O)c1ccc(C(=O)Nc2nc3c(s2)CCc2ccccc2-3)cc1,"inconclusive [cytotoxic, single point]",–
O=C(N/N=C/c1cc([N+](=O)[O-])ccc1O)c1ccc(COc2ccc3c(c2)CCC3)o1,"inconclusive [cytotoxic, partial curve]",–
O=C(Nc1cc(S(=O)(=O)N2CCCCC2)ccc1Cl)c1ccccc1NS(=O)(=O)c1ccc(F)cc1,"inconclusive [cytotoxic, full curve]",–
C=C1CCC[C@]2(C)C[C@H]3OC(=O)C(CNCC(OC)OC)[C@H]3CC12 (stereo not given in full),"inconclusive [cytotoxic, single point]",–
COC(=O)C1=C[C@@H](C(=O)OC)[C@@H]2C3=C(C(=O)[C@@]2(C)NC(=O)c2ccccc2)[C@H](C)n2c(=O)n(C)c(=O)n2[C@@H]3C1,–,inactive: -0.456%
CCOC(=O)c1c(-c2ccc(C)o2)csc1NC(=S)NC(=O)c1ccc(F)cc1,"inconclusive [cytotoxic, single point]",–
Cc1ccc(Nc2nc(-c3ccccc3)c(CC(=O)O)s2)cc1,–,inactive: -27.6%
COc1ccccc1-n1cnc2cc(NS(=O)(=O)c3ccc(Br)cc3)ccc21,"inconclusive [cytotoxic, single point]",–
CCCC(O)(CCN1CCOCC1)c1ccc(Br)cc1 (stereo not given),–,inactive: -6.32%
C/C(=N/OCc1ccc(Br)cc1)c1ccccn1,–,inactive: 1.49%
Cc1cccc(CSc2ccc(S(=O)(=O)N3CCCC3)cn2)c1,–,inactive: -2.95%
COc1cccc(C2(c3cccc(OC)c3)CC2C(=O)Nc2cccc3ccccc23)c1 (stereo not given),–,inactive: 0.188%
CC(=O)Nc1ccc(Nc2nc(C(F)(F)F)nc3c2nnn3Cc2ccccc2Cl)cc1,"inconclusive [cytotoxic, single point]",–
CSCC(C)N1CCC(N2CCC(C(=O)NCc3ccccn3)CC2)CC1 (stereo not given),–,inactive: -3.56%
Cc1ccc(-c2nnc(N3CCN(c4ccccn4)CC3)c3ccccc23)cc1,"inconclusive [cytotoxic, partial curve]",–
